# Reference: the supplement of paper PMC8728848
# Some of the results follow.
# B1: Epa1 (Candida glabrata) (protein)
# chain: MGSSHHHHHHSSGLVPRGSHMTSSNDISLASKDPTTFPLGCSPDITTPKKGLSMELYSYDFRKKGSYPCWDAAYLDPNYPRTGYKSHRLLAKVDGVTGNINFYYHATKGCTPQLGHLPASYNYPKPLTMTNFTMLLYGYFRPKVTGFHTFTISADDLLFVNFGAGNAFDCCRRDSSADHFGNYQAYAIWGSKTAKDELTVHLDAGVYYPIRLFYNNREYDGALSFTFKTESNENTVSDFSEYFFSLDDTEEGCPGLISYD
# How the values were obtained:
# Experiment in all cases: glycan array binding signal (z-score within array); higher = stronger binding
# Settings in all cases: glycan notation: IUPAC condensed, linker removed
# [1] = molecular target: Gal(b1-4)GlcNAc(b1-2)Man(a1-3)[Gal(b1-4)GlcNAc(b1-2)Man(a1-6)]Man(b1-4)GlcNAc(b1-4)GlcNAc
# Procedure, shortened: (§1)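 The binding signal is a Z-score computed within each array. Data were drawn from 3228 arrays in the Consortium for Functional Glycomics database, restricted to those with a known protein sequence. Scores were averaged over arrays of the same protein sequence at different concentrations or buffers, and over linkers, and negative values can be taken as non-binding.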
# [2] = molecular target: Gal(b1-4)GlcNAc(b1-2)Man(a1-3)[Gal(b1-4)GlcNAc(b1-2)Man(a1-6)]Man(b1-4)GlcNAc(b1-4)[Fuc(a1-6)]GlcNAc
# Procedure, shortened: as §1
# [3] = molecular target: Gal(b1-4)GlcNAc(b1-2)Man(a1-3)[Gal(b1-4)GlcNAc(b1-2)Man(a1-6)][Gal(b1-4)GlcNAc(b1-4)]Man(b1-4)GlcNAc(b1-4)[Fuc(a1-6)]GlcNAc
# Procedure, shortened: as §1
# [4] = molecular target: Gal(b1-4)GlcNAc(b1-2)Man(a1-3)[Gal(b1-4)GlcNAc(b1-2)Man(a1-6)][GlcNAc(b1-4)]Man(b1-4)GlcNAc(b1-4)[Fuc(a1-6)]GlcNAc
# Procedure, shortened: as §1
# [5] = molecular target: Gal(b1-4)GlcNAc(b1-2)Man(a1-3)[GlcNAc(b1-2)Man(a1-6)]Man(b1-4)GlcNAc(b1-4)GlcNAc
# Procedure, shortened: as §1
# [6] = molecular target: Gal(b1-4)GlcNAc(b1-2)Man(a1-3)[GlcNAc(b1-4)][Gal(b1-4)GlcNAc(b1-2)Man(a1-6)]Man(b1-4)GlcNAc(b1-4)GlcNAc
# Procedure, shortened: as §1
# [7] = molecular target: Gal(b1-4)GlcNAc(b1-2)Man(a1-3)[Man(a1-6)]Man(b1-4)GlcNAc(b1-4)GlcNAc
# Procedure, shortened: as §1
# [8] = molecular target: Gal(b1-4)GlcNAc(b1-2)Man(a1-6)Man(b1-4)GlcNAc(b1-4)GlcNAc
# Procedure, shortened: as §1
# [9] = molecular target: Gal(b1-4)GlcNAc(b1-2)Man(a1-6)[GlcNAc(b1-2)Man(a1-3)]Man(b1-4)GlcNAc(b1-4)GlcNAc
# Procedure, shortened: as §1
# [10] = molecular target: Gal(b1-4)GlcNAc(b1-2)Man(a1-6)[Man(a1-3)]Man(b1-4)GlcNAc(b1-4)GlcNAc
# Procedure, shortened: as §1
# [11] = molecular target: Gal(b1-4)GlcNAc(b1-2)[Gal(b1-4)GlcNAc(b1-4)]Man(a1-3)[Gal(b1-4)GlcNAc(b1-2)Man(a1-6)]Man(b1-4)GlcNAc(b1-4)GlcNAc
# Procedure, shortened: as §1
# [12] = molecular target: Gal(b1-4)GlcNAc(b1-2)[Gal(b1-4)GlcNAc(b1-4)]Man(a1-3)[Gal(b1-4)GlcNAc(b1-2)[Gal(b1-4)GlcNAc(b1-6)]Man(a1-6)]Man(b1-4)GlcNAc(b1-4)GlcNAc
# Procedure, shortened: as §1
# [13] = molecular target: Gal(b1-4)GlcNAc(b1-2)[Gal(b1-4)GlcNAc(b1-4)]Man(a1-3)[GlcNAc(b1-4)][Gal(b1-4)GlcNAc(b1-2)Man(a1-6)]Man(b1-4)GlcNAc(b1-4)GlcNAc
# Procedure, shortened: as §1
# [14] = molecular target: Gal(b1-4)GlcNAc(b1-2)[Gal(b1-4)GlcNAc(b1-4)]Man(a1-3)[GlcNAc(b1-4)][Gal(b1-4)GlcNAc(b1-2)[Gal(b1-4)GlcNAc(b1-6)]Man(a1-6)]Man(b1-4)GlcNAc(b1-4)GlcNAc
# Procedure, shortened: as §1
# [15] = molecular target: Gal(b1-4)GlcNAc(b1-2)[Gal(b1-4)GlcNAc(b1-6)]Man(a1-6)[Gal(b1-4)GlcNAc(b1-2)Man(a1-3)]Man(b1-4)GlcNAc(b1-4)GlcNAc
# Procedure, shortened: as §1
# [16] = molecular target: Gal(b1-4)GlcNAc(b1-2)[Gal(b1-4)GlcNAc(b1-6)]Man(a1-6)[Gal(b1-4)GlcNAc(b1-2)Man(a1-3)]Man(b1-4)GlcNAc(b1-4)[Fuc(a1-6)]GlcNAc
# Procedure, shortened: as §1
# [17] = molecular target: Gal(b1-4)GlcNAc(b1-2)[Gal(b1-4)GlcNAc(b1-6)]Man(a1-6)[GlcNAc(b1-4)][Gal(b1-4)GlcNAc(b1-2)Man(a1-3)]Man(b1-4)GlcNAc(b1-4)GlcNAc
# Procedure, shortened: as §1
# [18] = molecular target: Gal(b1-4)GlcNAc(b1-2)[Gal(b1-4)GlcNAc(b1-6)]Man(a1-6)[GlcNAc(b1-4)][Gal(b1-4)GlcNAc(b1-2)[Gal(b1-4)GlcNAc(b1-4)]Man(a1-3)]Man(b1-4)GlcNAc(b1-4)[Fuc(a1-6)]GlcNAc
# Procedure, shortened: as §1
# [19] = molecular target: Gal(b1-4)GlcNAc(b1-3)Gal(b1-3)GalNAc
# Procedure, shortened: as §1
binder,measurement,setting,value
B1,glycan array binding signal (z-score),[1],0.01
same,glycan array binding signal (z-score),[2],-0.125
same,glycan array binding signal (z-score),[3],-0.253
same,glycan array binding signal (z-score),[4],-0.284
same,glycan array binding signal (z-score),[5],-0.212
same,glycan array binding signal (z-score),[6],-0.209
same,glycan array binding signal (z-score),[7],-0.115
same,glycan array binding signal (z-score),[8],-0.208
same,glycan array binding signal (z-score),[9],-0.193
same,glycan array binding signal (z-score),[10],-0.169
same,glycan array binding signal (z-score),[11],0.625
same,glycan array binding signal (z-score),[12],1.18
same,glycan array binding signal (z-score),[13],-0.019
same,glycan array binding signal (z-score),[14],1.92
same,glycan array binding signal (z-score),[15],0.362
same,glycan array binding signal (z-score),[16],0.835
same,glycan array binding signal (z-score),[17],0.072
same,glycan array binding signal (z-score),[18],1.67
same,glycan array binding signal (z-score),[19],-0.062
